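Test compounds were applied to cells in 96-well plates for 48 hours at 5 doses. Here, GI50 denotes the concentration required for 50% inhibition of growth. TGI denotes the concentration required for complete inhibition of growth.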
What follows are compounds tested on NCI-H322M lung (assay: DTP human tumour cell line panel, 48 h).

Compared with CC[C@H](NC(=O)[C@H]1CCCCN1C)C(=O)N(C)[C@H](C[C@@H](OC(C)=O)c1nc(C(=O)N[C@@H](Cc2ccccc2)C[C@H](C)C(=O)O)cs1)C(C)C, COC1=CC(c2ccc[nH]2)=N/C1=C\c1[nH]c(C)c(CC(=O)OCc2ccccc2)c1CCC(=O)OCc1ccccc1 is 120-fold higher in GI50: 0.00755 µM for the first, 0.896 µM for the second.

Going from COc1cc2nccc(Oc3ccc(NC(=O)NC4CC4)c(Cl)c3)c2cc1C(N)=O to COc1ccc(C(=O)Nc2ncc(Cc3cccc(Cl)c3)s2)cc1OC, the GI50 falls from 36.3 µM to 15.7 µM (2.3-fold).

CSc1ccc(-c2ccccc(=O)c2O)cc1 and CN(C)c1ccc(/C=C/c2ccnc3c(O)cccc23)cc1 are within 1.5-fold of each other in GI50: 0.469 µM for the first, 0.501 µM for the second.

First: Cc1ccc(NC(=O)c2ccc(CN3CCN(C)CC3)cc2)cc1Nc1nccc(-c2cccnc2)n1
Second: Cc1cc(Nc2ccc(OCc3ccccc3)cc2)nc2cc(O)ccc12
The GI50 of the first is 2.1-fold higher: 23.1 µM for the first, 11 µM for the second.

Compared with Cc1cccc(-c2[nH]ncc2-c2ccc3ncccc3n2)n1, c1ccc(N2N=C(c3cccc(Nc4ccncc4)c3)CC2c2ccc3c(c2)OCO3)cc1 (stereo not drawn) is 7-fold lower in GI50: 14.2 µM for the first, 2.04 µM for the second.

COc1cccc(CCC2CCCN(c3cc(C)nc(N)n3)C2)c1 (stereo not drawn) and COc1ccc(/C=C(/C(=O)N2CCN(c3ccccc3)CC2)c2cc(OC)c(OC)c(OC)c2)cc1N are within 1.5-fold of each other in GI50: 0.571 µM for the first, 0.576 µM for the second.

Going from N.N.NCCCCCN.O=C([O-])CCl.O=C([O-])CCl.O=C([O-])CCl.O=C([O-])CCl.[Pt+4].[Pt+4] to CCCCCCCC/C=C/CCCCCCCC1=NC(C)(C)CN1CC(C)O (stereo not drawn), the GI50 falls from 36.6 µM to 1.77 µM (21-fold).

Compared with CC(C)(C)N1CCC1CN (stereo not drawn), C[C@]12CC[C@@H]3c4cc(OC(F)F)c(O)cc4CC[C@H]3[C@@H]1CC[C@@H]2OS(N)(=O)=O is lower in GI50: > 100 µM for the first, 3.14 µM for the second.

First: O=S(=O)([O-])c1ccc(N=Cc2ccccc2[O-])cc1.O=S(=O)([O-])c1ccc(N=Cc2ccccc2[O-])cc1.[O]=[U+2]=[O]
Second: COc1ccc(N=Cc2c(O)ccc3c2oc2cc(Cl)c(O)c(Cl)c23)cc1
The GI50 of the first is higher: > 100 µM for the first, 14.5 µM for the second.

Compared with COc1cc([C@@H]2c3cc4c(c(O)c3C[C@H]3COC(=O)[C@@H]32)OCO4)cc(OC)c1OC, Cc1cc(=O)[nH]c(N/N=C/c2cc(Br)ccc2O)n1 is 2.4-fold lower in GI50: 0.648 µM for the first, 0.266 µM for the second.

In the case of NCCCNc1nc2ccccc2c2c(=O)c3cc(F)cc(F)c3sc12, the GI50 is reported as 1.73 µM.

CC[C@H](NC(=O)[C@H]1CCCCN1C)C(=O)N(C)[C@H](C[C@@H](OC(C)=O)c1nc(C(=O)N[C@@H](Cc2ccccc2)C[C@H](C)C(=O)O)cs1)C(C)C and COC(=O)[C@H](Cc1ccccc1)NC(=O)/C(=C/C(C)C)NC(=O)[C@H](CCSC)NC=O cannot be ordered by TGI: > 14.3 µM for the first, > 100 µM for the second.

O=c1ccn(CC2(CO)CCCC2)c(=O)[nH]1 and Nc1nc2c(ncn2C2CCC(CO)O2)c(=O)n1C(=O)c1ccccc1 (stereo not drawn) cannot be ordered by TGI: > 100 µM for the first, > 100 µM for the second.

First: CCN(CC)CCC(=O)c1ccc(Sc2ccc(F)cc2)cc1
Second: CSc1ccc(-c2ccccc(=O)c2O)cc1
The TGI of the first is lower: 37.9 µM for the first, > 100 µM for the second.

Going from CN1C(=O)CCC2[C@@H]3CC=C4C[C@@H](O)CC[C@]4(C)C3CC[C@@]21C (stereo partly drawn) to CCOP(=O)(C=C=C1CCC2[C@@H]3CCc4cc(OC)ccc4C3CC[C@]12C)OCC (stereo partly drawn), the TGI falls from > 100 µM to 30.7 µM.

Nc1ccc2nc3c(nc2c1)C(=O)c1ccccc1-3 and CC(=O)Nc1ccccc1-c1nc2ccccc2nc1C cannot be ordered by TGI: > 100 µM for the first, > 100 µM for the second.

COc1cc2nccc(Oc3ccc(NC(=O)NC4CC4)c(Cl)c3)c2cc1C(N)=O and COc1ccc(C(=O)Nc2ncc(Cc3cccc(Cl)c3)s2)cc1OC cannot be ordered by TGI: > 100 µM for the first, > 100 µM for the second.

Going from Cc1ccc(NC(=O)c2ccc(CN3CCN(C)CC3)cc2)cc1Nc1nccc(-c2cccnc2)n1 to Cc1cc(Nc2ccc(OCc3ccccc3)cc2)nc2cc(O)ccc12, the TGI falls from 65.6 µM to 24.7 µM (2.7-fold).

First: CC[C@H]1CN2CCc3cc(OC)c(OC)cc3C2C[C@@H]1CC1NCCc2cc(OC)c(OC)cc21 (stereo partly drawn)
Second: COc1ccc(OC)c(CSc2ccc(OC)c(OC)c2)c1
The TGI of the first is lower: 0.19 µM for the first, > 100 µM for the second.

Compared with CCOc1ccc2nc3nc(=O)[nH]c(C)c3c(NCCCN(CC)CC)c2c1, CCN(CC)Cc1cc(Nc2c3ccccc3nc3c2[nH]c2ccccc23)cc(CN(CC)CC)c1O is lower in TGI: > 100 µM for the first, 4.77 µM for the second.

Going from CCCC(=O)Nc1cc(/C=C/C(=O)N2CC(CCl)c3c2cc(OCc2ccccc2)c2[nH]cc(C)c32)n(C)c1 (stereo not drawn) to C=CCc1[nH]c2c(OCc3ccccc3)cc(N(CC=C)C(C)=O)cc2c1C, the TGI rises from 1.14 µM to 24.7 µM (22-fold).

O=C(O)/C=C/C(=O)N1Cc2cc3ccccc3nc2C1 and CC(=O)C1C(=O)C(=O)N(c2ccccc2)C1=O (stereo not drawn) cannot be ordered by TGI: > 100 µM for the first, > 100 µM for the second.

O=[N+]([O-])c1ccc(-c2cc(O)c3nc4ccccc4n3c2)cc1 and O=C(NC(=S)Nc1ccc2c(c1)Sc1ccccc1O2)c1ccc([N+](=O)[O-])cc1 cannot be ordered by TGI: > 100 µM for the first, > 100 µM for the second.

COC(=O)C(=O)C(C(=O)C(=O)Nc1cccc(C(C)=O)c1)c1nc2ccc([N+](=O)[O-])cc2[nH]c1=O (stereo not drawn) and COC(=O)/C(=N\NC(N)=O)C(C(=O)C(=O)Nc1ccccc1OC)c1nc2ccc([N+](=O)[O-])cc2[nH]c1=O (stereo not drawn) cannot be ordered by TGI: > 100 µM for the first, > 100 µM for the second.

Going from COC1=CC(c2ccc[nH]2)=N/C1=C\c1[nH]c(C)c(CC(=O)OCc2ccccc2)c1CCC(=O)OCc1ccccc1 to CCOC(=O)CCC(NC(=O)Cc1ccc(Nc2nc3ccccc3nc2-c2cccs2)cc1)C(=O)OCC (stereo not drawn), the TGI rises from 12.9 µM to > 100 µM.

First: CC1(C)CC(O)C2=C(O1)C(=O)c1ncccc1C2=O (stereo not drawn)
Second: Cc1cc(O)c2c(c1O)C(=O)c1cccc(O)c1C2=O
The TGI of the first is lower: 28.4 µM for the first, > 100 µM for the second.

Cc1cccc(-c2[nH]ncc2-c2ccc3ncccc3n2)n1 and FC(F)(F)c1ccc(Cc2nc3cc4ccccc4cc3[nH]2)cc1 cannot be ordered by TGI: > 25 µM for the first, > 100 µM for the second.

First: c1ccc(N2N=C(c3cccc(Nc4ccncc4)c3)CC2c2ccc3c(c2)OCO3)cc1 (stereo not drawn)
Second: C1=NCCN2CCN(CCN=Cc3ccccc3OCc3cccc(n3)COc3ccccc31)CC2
The TGI of the first is lower: 5.27 µM for the first, > 50 µM for the second.

Oc1ccc2c(c1)CCc1c-2n(CCN2CCOCC2)c2ccc(O)cc12 and COc1ccc2c(c1O)-c1cc(O)cc3c1[C@@H](C2)N(C)CC3 cannot be ordered by TGI: > 100 µM for the first, 119 µM for the second.

Compared with COc1cccc(CCC2CCCN(c3cc(C)nc(N)n3)C2)c1 (stereo not drawn), CC(=O)OC(CN1CCN(c2ccccn2)CC1)Cn1sc2nc(C)cc(C)c2c1=O (stereo not drawn) is 1.6-fold higher in TGI: 20.2 µM for the first, 32.1 µM for the second.

O=C(O)CSCc1cc2c(O)c(c1)Cc1cc(CSCC(=O)O)cc(c1O)Cc1cc(CSCC(=O)O)cc(c1O)Cc1cc(CSCC(=O)O)cc(c1O)C2 and COc1ccc(/C=C(/C(=O)N2CCN(c3ccccc3)CC2)c2cc(OC)c(OC)c(OC)c2)cc1N cannot be ordered by TGI: > 100 µM for the first, > 100 µM for the second.

N.N.NCCCCCN.O=C([O-])CCl.O=C([O-])CCl.O=C([O-])CCl.O=C([O-])CCl.[Pt+4].[Pt+4] and COC1OC(CO)C(O)C(OC(C)=O)C1NC(=O)N(CCCl)N=O (stereo not drawn) cannot be ordered by TGI: > 100 µM for the first, > 100 µM for the second.

Nc1cc(F)ccc1CC(=O)O and CCOC(=O)c1ccc2c(c1)Cc1cc([N+](=O)[O-])ccc1-2 cannot be ordered by TGI: > 100 µM for the first, > 100 µM for the second.

First: COc1ccc2c(c1)[n+]([O-])c(-c1ccc([N+](=O)[O-])cc1)c(N)[n+]2[O-]
Second: COc1ccc(N=Cc2c(O)ccc3c2oc2cc(Cl)c(O)c(Cl)c23)cc1
The TGI of the first is higher: > 100 µM for the first, 48.5 µM for the second.

Compared with CC(C)C1OC(N)=C(C#N)C1(C#N)C#N (stereo not drawn), CC1=NN(c2nc(N)nc(CBr)n2)C(C)(C)C1 is lower in TGI: > 100 µM for the first, 30.8 µM for the second.

O=C1C(Cl)N(c2cccc(Cl)c2)C1c1c[nH]c2ccccc12 (stereo not drawn) and Cc1nc2c(c(=O)[nH]1)S/C(=C(/C#N)c1nc3ccccc3[nH]1)N2c1ccccc1 cannot be ordered by TGI: > 100 µM for the first, > 100 µM for the second.

C#CCNC(=O)N(CC#C)N=O and C=C=C(C(=O)OC)S(=O)c1ccccc1[N+](=O)[O-] (stereo not drawn) cannot be ordered by TGI: > 100 µM for the first, > 100 µM for the second.

First: COC(=O)C(Cc1nc2ccccc2[nH]c1=O)/C(=N\NC(C)(C)C)C(=O)Nc1c(C)cc(Br)cc1C (stereo not drawn)
Second: Cc1cc(=O)[nH]c(N/N=C/c2cc(Br)ccc2O)n1
The TGI of the first is higher: > 100 µM for the first, 0.729 µM for the second.

Compared with CC(C)(C)N1CCC1CN (stereo not drawn), CC(=O)OCC(C)C1=C(OC(C)=O)C(=O)C2(C)C/C=C(/C)CC/C=C(\C)CCC(OC(C)=O)C(C)CCC12 (stereo not drawn) is lower in TGI: > 100 µM for the first, 33.1 µM for the second.

Going from CN(C)c1ccc(/C=C/c2ccnc3c(O)cccc23)cc1 to CC12OOC(c3ccccc31)c1c2ccc2ccccc12 (stereo not drawn), the TGI falls from > 100 µM to 31.7 µM.

O=S(=O)([O-])c1ccc(N=Cc2ccccc2[O-])cc1.O=S(=O)([O-])c1ccc(N=Cc2ccccc2[O-])cc1.[O]=[U+2]=[O] and Cc1ccc(S(=O)(=O)CN2C(=O)C(c3ccccc3)(c3ccccc3)C23OC(c2ccc(Cl)cc2)=CC3=O)cc1 (stereo not drawn) cannot be ordered by TGI: > 100 µM for the first, > 10 µM for the second.

CCOC1=NC(C(F)(F)F)(C(F)(F)F)N=C(N2CCOCC2)O1 and COc1ccc(CC2C3=C(CCN2C(=O)C2CCC2)CC2(CC3)OCCO2)cc1O (stereo not drawn) cannot be ordered by TGI: > 100 µM for the first, > 100 µM for the second.

Compared with CCCCCCCC/C=C/CCCCCCCC1=NC(C)(C)CN1CC(C)O (stereo not drawn), COC(=O)CCC(C)[C@H]1CCC2C3C(C[C@H](OC(C)=O)[C@@]21C)[C@@]1(C)CCC2(C[C@H]1C[C@H]3OC(C)=O)OOC1(CCCC1)OO2 (stereo partly drawn) is higher in TGI: 4.09 µM for the first, > 100 µM for the second.

First: C[C@]12CC[C@@H]3c4cc(OC(F)F)c(O)cc4CC[C@H]3[C@@H]1CC[C@@H]2OS(N)(=O)=O
Second: C=C(C)C(=O)O[C@H]1CC2=C[C@@H](C[C@@]3(C)O[C@@H]3[C@H]3OC(=O)C(=C)[C@@H]31)OC2=O
The TGI of the first is 3.5-fold higher: 98.5 µM for the first, 28.1 µM for the second.

Clc1c(Cl)c(Cl)c2c(nnn2C2CCCO2)c1Cl (stereo not drawn) and CCOc1ccc(N/C(=C(/C(Cl)=C(/Cl)Nc2ccccc2)[N+](=O)[O-])n2nnc3ccccc32)cc1 cannot be ordered by TGI: > 100 µM for the first, > 100 µM for the second.

COc1c(C)cc(O)cc1C=O and O=C1/C(=N\O)c2ccccc2S1(=O)=O cannot be ordered by TGI: > 100 µM for the first, > 100 µM for the second.

First: CN(C)CCCC1c2ccccc2Oc2ccc(C(F)(F)F)cc21 (stereo not drawn)
Second: NCCCNc1nc2ccccc2c2c(=O)c3cc(F)cc(F)c3sc12
The TGI of the first is 8.8-fold higher: 28.2 µM for the first, 3.19 µM for the second.

From PubChem BioAssay (NCI)
